The campaign covered roughly 48,000 compounds. About 1,200 (2.5%) were called active. Roughly 2% stayed inconclusive and do not appear here.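 Rule for the calls: active = activation of at least 60% and not above a set upper limit (about 1 call in 100 departs from these limits); inconclusive = activation of 40% to 60%, or above that upper limit; inactive = activation under 40%.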 This is one part of the list.
Target: Probable G-protein coupled receptor 32 (Homo sapiens) (UniProt O75388)
Assay: qHTS for Agonists of Human Resolvin D1 Receptor DRV1
Settings: CHO-K1 GPR32 beta-arrestin PathHunter luminescence, 90 min; at 76.9 µM; active compounds read high; zero percent set by DMSO-only wells
Procedure, shortened: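 Beta-arrestin recruitment read-out: luminescence from complemented beta-Gal in CHO-K1 GPR32 PathHunter cells, measured 1 h after detection reagent at ambient temperature following 90 min compound exposure at 37 °C; DMSO served as basal (EC0) control.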

Sequence of UniProt O75388 (O75388 whole entry, looked up): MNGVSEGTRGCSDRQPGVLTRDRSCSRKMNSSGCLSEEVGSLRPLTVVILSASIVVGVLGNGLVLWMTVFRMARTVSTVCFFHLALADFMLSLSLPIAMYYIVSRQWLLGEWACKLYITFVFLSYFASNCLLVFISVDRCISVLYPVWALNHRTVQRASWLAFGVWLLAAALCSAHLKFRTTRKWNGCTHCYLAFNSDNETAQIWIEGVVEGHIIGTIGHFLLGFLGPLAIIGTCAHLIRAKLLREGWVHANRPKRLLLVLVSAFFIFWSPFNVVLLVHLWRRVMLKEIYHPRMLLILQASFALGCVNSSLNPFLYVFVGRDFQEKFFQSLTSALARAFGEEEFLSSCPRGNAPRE

activation, inactive:
CS(=O)(=O)c1ncc(Cl)c(C(=O)Nc2c(C(=O)c3ccc(Cl)cc3)oc3ccccc23)n1 -1.56%
COc1cccc(-c2nc3c(C#N)c[nH]n3c2NC2CCC(C)CC2)c1 (stereo not drawn) -28.8%
COc1ccc(CCNC(=O)c2ccc(Cn3c(SCC(=O)NCCC(C)C)nc4cc5c(cc4c3=O)OCO5)cc2)cc1OC -15.6%
Cc1ccc(NC(=O)CCSc2nc(-c3ccc4c(c3)OCO4)cc(C(F)(F)F)n2)c(C)c1 -3.73%
CCOc1ccccc1C(=O)NCc1ccc2c(c1)CCN2C(=O)c1ccccc1 -30.5%
Cc1cc(C)c2oc(-c3cccc(NC(=O)COc4ccccc4Cl)c3C)nc2c1 -1.91%
Cc1cccc(Nc2nc3c(S(=O)(=O)c4ccc(Br)cc4)nnn3c3ccsc23)c1C -2.5%
Cc1cc(NC(=O)CSc2ncc(C(=O)Nc3ccc(C)c(C)c3)c(=O)n2C)no1 -10.5%
CC1=C(C(=O)Nc2cccnc2)C(c2ccccc2Cl)n2nc(-c3ccccc3)nc2N1 (stereo not drawn) -12.9%
CC(=O)c1c(C)n(-c2ccc(C)cc2)c2ccc(OC(=O)COc3ccccc3)cc12 -7.24%
O=C(Nc1ccc2oc(-c3ccc4ccccc4c3)nc2c1)c1cc(Cl)ccc1Cl -18.9%
Cc1ccc2nc(CN3CCN(S(=O)(=O)c4ccc(C)c(C)c4)CC3)oc2c1 5.74%
COc1cc(-c2ccno2)ccc1S(=O)(=O)N1CCN(c2ccccc2)CC1 -3.86%
CC(C)C(=O)Nc1nnc(SCc2cc(=O)n3ccccc3n2)s1 -2.72%
CN(C)c1ccc(CNC(=O)C2CCN(S(=O)(=O)c3ccc4[nH]c(=O)ccc4c3)CC2)cc1 3.94%
Cc1ccc(-n2c(=O)c3c(cnn3C)n(CC(=O)Nc3cccc(C)c3)c2=O)cc1 -5.03%
Cn1c(=O)n(C)c2cc(N3CCOCC3)c(NS(=O)(=O)c3ccc(Cl)cc3)cc21 -10%
CCOC(=O)C1CCN(C(=O)CSc2n[nH]c(-c3ccc(OC)cc3)n2)CC1 -7.58%
Cc1cc(=O)n(Cc2c(F)cccc2Cl)c2c1c(C)nn2C -21.1%
CCOC(=O)Cn1c(CN2CCN(c3ccc(OC)cc3)CC2)nc2c1c(=O)[nH]c(=O)n2C -14.4%
COc1ccc(CCNC(=O)Cn2c(-c3ccc(F)cc3)cc(C(C)=O)c2C)cc1OC -20.9%
COc1ccc2c(c1)CC(C(=O)NCCc1ccc(S(N)(=O)=O)cc1)CO2 (stereo not drawn) -14.2%
Cc1ccc(C)c(OC(=O)CSc2nnc(-c3cccs3)o2)c1 -20.5%
CCCC(=O)Nc1cc(-c2nnc3c4ccccc4c(C)nn23)ccc1C 1.93%
COc1cc2ccccc2cc1C(=O)N1CCN(c2nc3c(F)cc(F)cc3s2)CC1 8.86%
COc1ccc(-n2c(=O)c3c(c4cc(OC)ccc4n3C)n(CC(=O)N3CCCC3)c2=O)cc1 -2.81%
COc1ccc(N2CCN(CCCNC(=O)c3ccc4nc(Cc5ccccc5)oc4c3)CC2)cc1 11.9%
Cc1ccc(NC(=O)C(C)Sc2nc3c(c(=O)[nH]2)CCCC3)cc1Cl (stereo not drawn) 24.6%
CSc1cccc(NC(=O)CN2C(=O)CCc3cc(S(=O)(=O)N4CCCCC4)ccc32)c1 -19.9%
Cc1cc(C)cc(NC(=O)c2cccc(C(=O)Nc3cc(C)cc(C)c3)c2)c1 -1.04%
CCc1ccc(NC(=O)CCCc2nnc3n(CCCOC)c(=O)c4sccc4n23)cc1 -13.1%
CCOc1ccccc1NC(=O)CSc1ccc2nc(-c3ccccc3)cn2n1 -2.84%
O=C(COc1ccccc1Cl)N(Cc1cccc(F)c1)C1CCS(=O)(=O)C1 (stereo not drawn) -18.3%
COC(=O)c1ccccc1NC(=O)Cn1c(=O)n(CCCC(=O)NCc2ccccc2Cl)c(=O)c2ccccc21 -19.4%
O=C(Cn1cnc2c(nc3n2CCCCC3)c1=O)Nc1cccc(C(F)(F)F)c1 -11.8%
CCOc1ccc(/C=C/c2nc(C#N)c(NCCCN(C)C)o2)cc1 3.57%
CN(C(=O)Nc1cn(C)c(=O)c2ccccc12)c1ccccc1 -59.9%
COc1cc(CNC(=O)CCCCCCC(C)C)ccc1O -12.3%
COc1ccccc1CCNC(=O)Cc1c(C)c2c(cc(C)c3c(C)coc32)oc1=O -8.2%
COc1ccc(N2C(=O)C(CC(=O)Nc3ccc(F)cc3)N(CCC3=CCCCC3)C2=O)cc1 (stereo not drawn) -6.78%
O=C(NC1CC(=O)N(c2cccc(F)c2)C1)C1CCCCC1 (stereo not drawn) 4.72%
O=C(CSC1=Nc2ccccc2N=C(c2ccc(F)cc2)C1)Nc1cc(F)ccc1F -6.31%
COc1ccc(Cl)cc1NC(=O)CN1c2ccccc2S(=O)(=O)c2ccccc21 2.36%
CCCCNc1cc(NC2CCCCC2)c2c3c(onc13)-c1ccccc1C2=O -19.8%
CCCN1C(=O)CN(C2CCCCCC2)C(=O)C1c1ccc(OCC)c(OC)c1 (stereo not drawn) -18%
COCCCNC(=O)c1c(NC(=O)c2cc(=O)c3cc(C)c(C)cc3o2)sc2c1CCCC2 7.03%
COc1ccccc1CCNC(=O)c1cc2ccccn2n1 19.4%
CCCOc1ccc(CNC(=O)C2CCN(c3nc4ccccc4nc3C(F)(F)F)CC2)cc1 6.73%
CCn1cc2nc(SCc3cccc(OC)c3)n(Cc3ccc(Cl)cc3)c(=O)c2n1 -4.17%
Cc1ccc(SCC(=O)Nc2cccc(-c3nc4cc(Cl)ccc4o3)c2C)cc1 -5.02%
CC1=C(C(=O)Nc2ccccc2Cl)C(c2cccs2)n2ncnc2N1 (stereo not drawn) 30.6%
O=C(CCC1N=C2c3ccccc3N=C(SCc3cccc(F)c3)N2C1=O)NC1CCCCC1 (stereo not drawn) -6.89%
O=[N+]([O-])c1ccc(O)c2ncccc12 -82.2%

Source: PubChem BioAssay AID1346428 (National Center for Advancing Translational Sciences (NCATS), 2018)
